Test results as given in PMC4336329 (PLoS ONE, 2015).
In all, about 310,000 compounds went through this assay and about 14,000 (4.5%) showed an effect of 50% or more. The effect is printed as a negative number. The list shows a part of the results.

Target: human ether-à-go-go-related gene (hERG) potassium channel (human, UniProt Q12809)
Assay: primary screen, population patch clamp on CHO cells stably expressing hERG
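Further: peak tail current of the secondary pulse compared with the same well before compound.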

human ether-à-go-go-related gene (hERG) potassium channel, sequence (Q12809 whole entry, looked up): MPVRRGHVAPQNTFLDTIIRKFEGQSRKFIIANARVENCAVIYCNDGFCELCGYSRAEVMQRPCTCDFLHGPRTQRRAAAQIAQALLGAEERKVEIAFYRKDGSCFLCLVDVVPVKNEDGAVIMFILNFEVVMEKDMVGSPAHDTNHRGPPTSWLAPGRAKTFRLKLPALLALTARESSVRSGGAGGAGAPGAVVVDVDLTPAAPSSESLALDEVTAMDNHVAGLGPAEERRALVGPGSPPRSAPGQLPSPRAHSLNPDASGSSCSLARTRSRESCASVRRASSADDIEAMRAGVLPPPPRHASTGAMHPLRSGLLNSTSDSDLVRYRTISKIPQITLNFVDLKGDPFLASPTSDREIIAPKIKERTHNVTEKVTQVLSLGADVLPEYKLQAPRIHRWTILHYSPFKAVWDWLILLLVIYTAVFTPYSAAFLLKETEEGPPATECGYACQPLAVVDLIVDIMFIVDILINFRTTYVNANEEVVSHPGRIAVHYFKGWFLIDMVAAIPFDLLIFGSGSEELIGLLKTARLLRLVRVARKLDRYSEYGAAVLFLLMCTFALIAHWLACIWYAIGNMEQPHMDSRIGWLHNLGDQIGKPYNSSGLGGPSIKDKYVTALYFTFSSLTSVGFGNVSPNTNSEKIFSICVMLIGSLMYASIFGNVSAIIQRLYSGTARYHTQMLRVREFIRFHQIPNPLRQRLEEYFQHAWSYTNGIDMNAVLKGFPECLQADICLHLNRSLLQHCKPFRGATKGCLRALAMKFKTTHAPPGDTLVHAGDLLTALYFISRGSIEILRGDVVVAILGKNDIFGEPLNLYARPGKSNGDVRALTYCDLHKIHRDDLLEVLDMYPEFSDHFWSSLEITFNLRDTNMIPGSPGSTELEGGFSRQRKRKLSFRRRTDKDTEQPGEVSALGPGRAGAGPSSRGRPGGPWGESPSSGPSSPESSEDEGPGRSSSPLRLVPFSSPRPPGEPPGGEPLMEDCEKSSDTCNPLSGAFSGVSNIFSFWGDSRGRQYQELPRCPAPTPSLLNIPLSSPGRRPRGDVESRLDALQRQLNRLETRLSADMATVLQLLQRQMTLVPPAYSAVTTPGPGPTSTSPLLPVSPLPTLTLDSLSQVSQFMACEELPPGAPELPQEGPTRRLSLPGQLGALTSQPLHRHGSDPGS

Compound | hERG current change (%, negative = inhibition) at 10uM [%]
CC(=O)N(c1cccc(C(F)(F)F)c1)c1nc(/C=C/C(=O)O)cs1 | 3.07
COc1ccc(C(=O)NCCc2cccc(Cl)c2)cc1OC1CCN(C(C)=O)CC1 | -16.1
CSc1nc2ccccc2c(=O)n1C1CCOC(C)(C)C1 (stereo not shown) | -4.02
COc1ccc(OCC(=O)Nc2cccc(OC)c2)cc1 | -6.48
COc1ccc(S(=O)(=O)NCCOc2ccc(Cl)cc2)cc1 | -18.5
O=C(NCCCN1CCCC1)[C@H](CSCc1ccccc1)N1Cc2ccccc2C1=O | -56.8
Cc1cccc(NC(=O)C2CC(=O)N(c3ccc4c(c3)OCCO4)C2)n1 (stereo not shown) | 13.5
O=C(NCc1ccccn1)C(=O)NCC1OCCCN1S(=O)(=O)c1ccc(F)cc1 (stereo not shown) | 14.4
C=Cc1ccc(Cn2c(=O)n(C)c(=O)c3sccc32)cc1 | 1.73
C=CCn1c(SCc2ccc(C#N)cc2)nnc1-c1ccccc1 | -57.8
CC(=O)N1CCN(c2nc(-c3ccco3)c3c(c2C#N)CC(C)(C)SC3)CC1 | -18.9
COc1cccc(C(=O)Nc2cccc(NC(C)=O)c2)c1 | -8.39
CC(=O)N1C(=O)N(C(C)=O)C2C1N(C)C(=O)N2C(C)=O (stereo not shown) | 13.8
Cc1ccc(/C=C/C(O)=C2/C(=O)N(C)C3(C)CC2c2ccccc2O3)cc1 (stereo not shown) | 13.7
COc1ccccc1NC(=O)C(=O)N/N=C/c1cccs1 | -4.36
COc1ccc(NC(=O)C(NC(=O)c2ccc(=O)[nH]c2)c2ccccc2)cc1 (stereo not shown) | 1.01
COc1cccc(C(=O)Nc2ccc(NC(C)=O)cc2)c1 | 6.12
COc1cc(OC)cc(C(=O)N/N=C(\C)CC(=O)Nc2ccccn2)c1 | 22.1
Cn1cccc1-c1nc2ccc(NC(=O)c3ccccc3)cc2[nH]1 | -39.3
COCCCNC(=O)COc1ccc2oc3c(c2c1)CCCC3 | 0.387
Cc1ccc(NC(=O)c2sc(N)nc2-c2ccc([N+](=O)[O-])cc2)cc1C | 8.18
CC(=O)c1c(N2CCOCC2)nc(=S)n(-c2cc(C)ccc2C)c1C | 7.16

Compound | hERG current change (%, negative = inhibition) at 10uM [%]
O=C(c1ccccc1)N1CCN(C2c3cccc4cccc(c34)C2NS(=O)(=O)c2ccccc2)CC1 (stereo not shown) | -21.9
COc1cc(C(=O)NCc2nnc(SCC(=O)NCc3ccco3)o2)cc(OC)c1OC | 27.9
Cc1cc(Br)ccc1OCC(=O)N1CCCCCC1 | -12.1
Cc1cnc(NC(=O)COc2cccc3c2OC(C)(C)C3)s1 | 11.5
O=C(N/N=C/c1ccccc1Cl)c1[nH]c2ccc(Br)cc2c1-c1ccccc1 | 13
O=C(N/N=C/c1cn(-c2cccs2)nc1-c1ccccc1)c1ccccc1O | 25
O=C(Nc1cc(Cl)cc(Cl)c1)C1CCCC1 | 14.6
Cc1ccc(C(=O)CCC(=O)N2CCN(c3ccc(F)cc3)CC2)cc1 | -10.1
CCOC(=O)c1ccc(NC(=S)N2CCN(C)CC2)cc1 | 12.2
C=C1CCC2[C@](C)(CO)[C@H](O)CC[C@@]2(C)[C@@H]1/C=C/C1=CCOC1=O (stereo partly shown) | 7.38
Cn1c(CNC(=O)CNS(=O)(=O)c2ccc(Cl)cc2)cc(=O)n(C)c1=O | 24.1
CCOC(=O)CSc1n[nH]c(NC(=O)c2ccc(F)cc2)n1 | -16.5
COc1ccc(CCN2C(=O)N(c3ccc(OC)cc3)C(=O)C2CC(=O)Nc2ccccc2)cc1 (stereo not shown) | -23.4
Cc1ccccc1N(Cc1cc(=O)[nH]c2ccccc12)C(=O)CCl | 15.6
Cc1cccc(-c2n[nH]c(=S)n2/N=C/C=C/c2ccco2)c1 | 2.05
O=C(NCc1ccc(F)cc1)c1cnc(-c2ccccn2)nc1C(F)(F)F | -7.64
CCOC(=O)N1CCN(C(=O)COC(=O)c2cccc(C)c2[N+](=O)[O-])CC1 | -10.4
CCC(Cc1ccccc1)NC(=O)C1CCN(S(=O)(=O)c2c(C)noc2C)CC1 (stereo not shown) | 4.09
Cc1ccc(S(=O)(=O)N2CCN(CC(=O)N/N=C\c3ccc(Cl)c([N+](=O)[O-])c3)CC2)cc1 | -30.8
CCc1nc2ccc(C(=O)N3CCN(c4ccc([N+](=O)[O-])cc4)CC3)cc2nc1CC | -72.1
CC(=NCC1CCCO1)c1c(O)n(-c2ccccc2)c(=O)[nH]c1=O (stereo not shown) | -0.431
CCOC(=O)/C(N=Nc1ccc2c(c1)OCO2)=C(\C)O | -2.75

Compound | hERG current change (%, negative = inhibition) at 10uM [%]
COc1cccc(C(=O)Nc2nnc(S(=O)(=O)N(C)Cc3ccccc3)s2)c1 | 17.4
COCn1c(=O)c2c(nc(SC3=NCCS3)n2Cc2ccccc2C)n(COC)c1=O | -0.787
CSc1ccccc1NC(=O)CN(C)CC(=O)Nc1c(F)cccc1F.O=C(O)C(=O)O | 23.4
CC(=O)Nc1ccc(S(=O)(=O)N2CCN(Cc3cccc([N+](=O)[O-])c3)CC2)cc1.O=C(O)C(=O)O | -3.41
CC(C)=CCC/C(C)=C/C(=O)O | 15.2
Cc1cc(N2C(=O)C3CC=CCC3C2=O)no1 (stereo not shown) | -2.08
CCN(CC)C(=O)Oc1ccc2c(=O)c(-c3ccc(OC)cc3)c(C)oc2c1 | -35.8
COc1ccc(/C=C2/C(=N)N3C(=NC2=O)Sc2cc(S(C)(=O)=O)ccc23)cc1OC | 3.28
C[C@H](NC(=O)c1ccccc1Cl)C(=O)OCCOc1cccc(Cl)c1 | -7.09
COc1ccc(CCC(C)NCc2ccccc2OC)cc1 (stereo not shown) | -40.4
COc1ccccc1-n1cnnc1SCC(=O)NCC1CCCO1 (stereo not shown) | 16.6
O=C1CSC(=Nc2ccc(O)cc2)N1 | 19.7
Cc1cccc2c1-c1sc(C(=O)NCCCN3CCC(C)CC3)cc1CO2 | -77.6
CCCN1CCC(NC(=O)Nc2ccccc2C(=O)OC)CC1 | -9.26
CCc1cc(=O)oc2cc(C)c(CN3CCCCC3)c(O)c12 | -20.5
CCCSc1nnc(Cn2c(=O)sc3ccccc32)n1C | -1.25
COc1c(C)cc(Br)cc1C(=O)NCc1cccnc1 | -17.9
CC12CCC3C(CCC4C/C(=N/O)CCC43C)C1CCC2O (stereo not shown) | -16.6
O=C(CC(SCCO)c1ccc(F)cc1)c1ccco1 (stereo not shown) | 3.4
O=C(CCn1c(=O)c2ccccc2n(CC(=O)NCCC2=CCCCC2)c1=O)NCc1ccco1 | -3.77
CN(C)S(=O)(=O)c1cccc(N=c2scc(-c3ccc4c(c3)NC(=O)CO4)n2CC2CCCO2)c1 (stereo not shown) | -43.5
CC(=O)Cc1nsc(NC(=O)c2ccc(COc3ccccc3)o2)n1 | -9.81

Compound | hERG current change (%, negative = inhibition) at 10uM [%]
COc1ccccc1C(=O)NC(=S)Nc1cccc2cc(O)ccc12 | 15.6
Cc1ccc(NC(=O)N2CCC(NC(=O)c3cccc(C)c3)CC2)cc1 | -4.37
Cc1nnc(NC(=O)CSc2nc3c(c(=O)n2C)SC(C)C3)s1 (stereo not shown) | 4.1
Cc1cc(C)c2c(N=NN3CCCCC3)[nH]nc2n1 | -24.8
O=C(c1cnc2ccc3ccccc3c2c1)c1cc(F)ccc1O | 13.6
O=C(NCCCn1ccnc1)c1ccc(NS(=O)(=O)c2cccc([N+](=O)[O-])c2)cc1 | -4.07
CC(C(=O)NC(=O)NC1CCCCC1)N1CCN(c2ccc(O)cc2)CC1 (stereo not shown) | -33.6
O=C(COC(=O)c1ccc2ccccc2n1)Nc1ncc(C(F)(F)F)cc1Cl | -2.24
CCC(=O)Nc1ccc2c(c1)nc(CCNC(=O)c1ccco1)n2C | 19
CCc1ccccc1NS(=O)(=O)c1ccc(SC)cc1 | 14.9
CCOc1ccc(CCNC(=O)COC(=O)C2CCN(S(=O)(=O)c3ccc(C)c(C)c3)CC2)cc1OCC | -16.3
Cc1cc(NC(=O)Cn2c(C)nc3ccccc3c2=O)ccc1Br | -8.17
COc1ccc(C)cc1NC(=O)NCc1ccccn1 | 8.33
CCC(=O)Nc1nc2ccc(NC(C)=O)cc2s1 | -1.01
COc1ccc(NC(=O)C2CCC(C(C)(C)C)CC2)cc1S(=O)(=O)N1CCOCC1 (stereo not shown) | -24.5
CCCn1c(SCC(=O)NC23CC4CC(CC(C4)C2)C3)n[nH]c1=O | 1.76
O=C(O)CCC(=O)N1N=C(c2cccs2)CC1c1cccc([N+](=O)[O-])c1 (stereo not shown) | 20
O=C(NCCc1ccc(C(F)(F)F)cc1)C1CCC(=O)N(C2CC2)C1 (stereo not shown) | -2.94
Cc1cc(NC(=O)c2cccc(F)c2)no1 | -10.6
O=C(O)C1CCCN(S(=O)(=O)c2cccc3cccnc23)C1 (stereo not shown) | 10.9
CC(=O)C1=C(O)C(=O)N(c2ccccn2)C1c1cccc(F)c1 (stereo not shown) | 13
Cc1ccc(C)c(C(=O)CSc2n[nH]c(C(C)C)n2)c1 | 13
